Where a name gives a salt, the structure may show the parent alone.
Molecular target: CtermHisTag-mEGFR Triple Mutant (R797S, L858R, T790M) (Homo sapiens, UniProt P00533, C797S/L858R/T790M)
Assay: TR-FRET probe displacement, EGFR triple mutant
Conditions: 1.25 nM EGFR, 100 nM probe, 30 mins room temperature

SMILES | IC50 [nM]
C#Cc1cc(=O)n(C)c2nc(Nc3ccccc3OC)ncc12 [Example 48, 5-Ethynyl-2-[(2-methoxyphenyl)amino]-8-methylpyrido[2,3-d]pyrimidin-7-one] | 100 to 1000
C#Cc1c(N(C)C)c(=O)n(-c2ccccc2)c2nc(Nc3ccccc3OC)ncc12 [Example 147, 6-(dimethylamino)-5-ethynyl-2-[(2-methoxyphenyl)amino]-8-phenylpyrido[2,3-d]pyrimidin-7-one] | 100 to 1000
C#Cc1cc(=O)n(-c2ccc(NC(=O)CC)cc2)c2nc(Nc3ccccc3OC)ncc12 [Example 65, N-(4-(5-Ethynyl-2-((2-methoxyphenyl)amino)-7-oxopyrido[2,3-d]pyrimidin-7(8H)-yl)phenyl)propionamide] | 20 to 100
C#Cc1cc(=O)n(C)c2nc(Nc3ccc(N(C)CCN(C)C)cc3OC)ncc12 [Example 42, 2-[(4-{[2-(Dimethylamino)ethyl](methyl)amino}-2-methoxyphenyl)amino]-5-ethynyl-8-methylpyrido[2,3-d]pyrimidin-7-one] | 100 to 1000
C#Cc1cc(=O)n(-c2ccccc2)c2nc(Nc3ccc(N4CCNC5(CC5)C4)cc3)ncc12 [Example 38, 2-[(4-{4,7-Diazaspiro[2.5]octan-7-yl}phenyl)amino]-5-ethynyl-8-phenylpyrido[2,3-d]pyrimidin-7-one] | 20 to 100
C#Cc1cc(=O)n(C2CCCC2)c2nc(Nc3cccc(CN4CCC(CS(C)(=O)=O)C4)c3)ncc12 (stereo not drawn) [Example 182] | 100 to 1000
C#Cc1cc(=O)n(C2CCCC2)c2nc(Nc3cccc4c3CCN(C)C4)ncc12 [Example 185, 8-Cyclopentyl-5-ethynyl-2-[(2-methyl-3,4-dihydro-1H-isoquinolin-5-yl)amino]pyrido[2,3-d]pyrimidin-7-one] | 1000 to 50000
C#Cc1cc(=O)n2c3nc(ncc13)Nc1ccc(N3CCN(C)CC3)c(c1)CC(=O)NCC2 [Example 197, 1^5-Ethynyl-3^4-(4-methylpiperazin-1-yl)-1^7,1^8-dihydro-2,6-diaza-1(2,8)-pyrido[2,3-d]pyrimidina-3(1,3)-benzenacyclooctaphane-1^7,5-dione] | 100 to 1000
C#Cc1c(C)c(=O)n(Cc2cnn(C)c2)c2nc(Nc3ccc(N4CCN(C)CC4)cc3)ncc12 [Example 180, 5-Ethynyl-6-methyl-2-{[4-(4-methylpiperazin-1-yl)phenyl]aminol}-8-[(1-methylpyrazol-4-yl)methyl]pyrido[2,3-d]pyrimidin-7-one] | 100 to 1000
C#Cc1c(-c2ccccc2Cl)c(=O)n(C)c2nc(NCCCCN3CCN(C)CC3)ncc12 [Example 130, 6-(2-chlorophenyl)-5-ethynyl-8-methyl-2-{[4-(4-methylpiperazin-1-yl)butyl]amino}pyrido[2,3-d]pyrimidin-7-one] | 100 to 1000
C#Cc1cc(=O)n2c3nc(ncc13)Nc1ccc(N3CCN(C)CC3)c(c1)CNCCC2 [Example 199, 1^5-Ethynyl-3^4-(4-methylpiperazin-1-yl)-1^7,1^8-dihydro-2,5-diaza-1(2,8)-pyrido[2,3-d]pyrimidina-3(1,3)-benzenacyclooctaphan-1^7-one] | 1000 to 50000
C#Cc1cc(=O)n(C2CNC(=O)C2)c2nc(Nc3ccc(N4CCN(C)CC4)cc3)ncc12 (stereo not drawn) [Example 108, 4-(5-ethynyl-2-{[4-(4-methylpiperazin-1-yl)phenyl]amino}-7-oxopyrido[2,3-d]pyrimidin-8-yl)pyrrolidin-2-one] | 100 to 1000
C=Cc1c(-c2ccccc2Cl)c(=O)n(C)c2nc(Nc3cccc(OC)c3)ncc12 [Example 168, 6-(2-chlorophenyl)-5-ethenyl-2-[(3-methoxyphenyl)amino]-8-methylpyrido[2,3-d]pyrimidin-7-one] | 1000 to 50000
C#Cc1cc(=O)n2c3nc(ncc13)Nc1cccc(c1)OCCCC2 [Example 193, 1^5-Ethynyl-1^7,1^8-dihydro-4-oxa-2-aza-1(2,8)-pyrido[2,3-d]pyrimidina-3(1,3)-benzenacyclooctaphan-1^7-one] | 20 to 100
C#Cc1c(C)c(=O)n(Cc2ccnn2C)c2nc(Nc3ccc(N4CCN(C)CC4)cc3)ncc12 [Example 112, 5-ethynyl-6-methyl-2-{[4-(4-methylpiperazin-1-yl)phenyl]amino}-8-[(2-methylpyrazol-3-yl)methyl]pyrido[2,3-d]pyrimidin-7-one] | 20 to 100

The next lines start with the values.

IC50 [nM] | SMILES
< 20 | C#Cc1cc(=O)n(CC2CCOC2)c2nc(Nc3ccc(N4CCN(C)CC4)cc3)ncc12 (stereo not drawn) [Example 70, 5-Ethynyl-2-((4-(4-methylpiperazin-1-yl)phenyl)amino)-8-((tetrahydrofuran-3-yl)methyl)pyrido[2,3-d]pyrimidin-7(8H)-one]
< 20 | C#Cc1cc(=O)n([C@H]2CC[C@@H](NC(=O)CCN(C)C)CC2)c2nc(Nc3ccc(N4CCN(C)CC4)cc3)ncc12 [Example 96, 3-(Dimethylamino)-N-[(1s,4s)-4-(5-ethynyl-2-{[4-(4-methylpiperazin-1-yl)phenyl]amino}-7-oxopyrido[2,3-d]pyrimidin-8-yl)cyclohexyl]propanamide]
20 to 100 | C#Cc1c(C)c(=O)n(Cc2ccno2)c2nc(Nc3ccc(N4CCN(C)CC4)cc3)ncc12 [Example 113, 5-ethynyl-6-methyl-2-{[4-(4-methylpiperazin-1-yl)phenyl]amino}-8-(1,2-oxazol-5-ylmethyl)pyrido[2,3-d]pyrimidin-7-one]
20 to 100 | C#Cc1cc(=O)n([C@@H]2CCCN(C(=O)CC)C2)c2nc(Nc3ccc(N(C)CCN(C)C)cc3)ncc12 [Example 77, (R)-2-((4-((2-(Dimethylamino)ethyl)(methyl)amino)phenyl)amino)-5-ethynyl-8-(1-propionylpiperidin-3-yl)pyrido[2,3-d]pyrimidin-7(8H)-one trifluoroacetic acid salt]
20 to 100 | C#Cc1c(C)c(=O)n(-c2ccccc2)c2nc(Nc3ccc(N4CCN(C)CC4)cc3)ncc12 [Example 151, 5-Ethynyl-6-methyl-2-{[4-(4-methylpiperazin-1-yl)phenyl]amino}-8-phenylpyrido[2,3-d]pyrimidin-7-one]
20 to 100 | C#Cc1cc(=O)n(C)c2nc(Nc3ccc(N(C)CCN(C)C)c(-c4cnn(C)c4)c3)ncc12 [Example 47, 2-[(4-{[2-(Dimethylamino)ethyl](methyl)amino}-3-(1-methylpyrazol-4-yl)phenyl)amino]-5-ethynyl-8-methylpyrido[2,3-d]pyrimidin-7-one]
20 to 100 | C#Cc1cc(=O)n(-c2cccc(N)c2)c2nc(Nc3ccccc3OC)ncc12 [Example 55, 8-(3-Aminophenyl)-5-ethynyl-2-((2-methoxyphenyl)amino)pyrido[2,3-d]pyrimidin-7(8H)-one]
< 20 | C#Cc1cc(=O)n(-c2ccccc2)c2nc(Nc3cnn(C)c3)ncc12 [Example 25, 5-Ethynyl-2-[(1-methylpyrazol-4-yl)amino]-8-phenylpyrido[2,3-d]pyrimidin-7-one]
< 20 | C#Cc1cc(=O)n([C@H]2CC[C@@H](NC(=O)CC(=O)N(C)C)CC2)c2nc(Nc3ccc(N4CCN(C)CC4)cc3)ncc12 [Example 95, N,N-Dimethyl-N′-[(1s,4s)-4-(5-ethynyl-2-{[4-(4-methylpiperazin-1-yl)phenyl]amino}-7-oxopyrido[2,3-d]pyrimidin-8-yl)cyclohexyl]propanediamide]
< 20 | C#Cc1cc(=O)n(-c2ccccc2)c2nc(Nc3ccc(N4CCC(N5CC(N(C)C)C5)CC4)cc3)ncc12 [Example 29, 2-[(4-{4-[3-(Dimethylamino)azetidin-1-yl]piperidin-1-yl}phenyl)amino]-5-ethynyl-8-phenylpyrido[2,3-d]pyrimidin-7-one]
< 20 | C#Cc1cc(=O)n(-c2ccccc2)c2nc(Nc3ccc(N4CCC(N5CC(F)(CO)C5)CC4)cc3)ncc12 [Example 30, 5-Ethynyl-2-[(4-{4-[3-fluoro-3-(hydroxymethyl)azetidin-1-yl]piperidin-1-yl}phenyl)amino]-8-phenylpyrido[2,3-d]pyrimidin-7-one]
< 20 | C#Cc1cc(=O)n(-c2ccccc2)c2nc(Nc3ccc(N4CCN(C)CC4)cc3)ncc12 [Example 37, 5-Ethynyl-2-((4-(4-methylpiperazin-1-yl)phenyl)amino)-8-phenylpyrido[2,3-d]pyrimidin-7(8H)-one]
< 20 | C#Cc1cc(=O)n(-c2ccccc2)c2nc(Nc3ccc(N4CCC(N5CC(C(C)(C)O)C5)CC4)cc3)ncc12 [Example 40, 5-Ethynyl-2-[(4-{4-[3-(2-hydroxypropan-2-yl)azetidin-1-yl]piperidin-1-yl}phenyl)amino]-8-phenylpyrido[2,3-d]pyrimidin-7-one]
< 20 | C#Cc1cc(=O)n(-c2ccccc2)c2nc(Nc3ccc(N4CCN(C)CC4)c(CO)c3)ncc12 [Example 31, 5-Ethynyl-2-{[3-(hydroxymethyl)-4-(4-methylpiperazin-1-yl)phenyl]amino}-8-phenylpyrido[2,3-d]pyrimidin-7-one]
< 20 | C#Cc1cc(=O)n(-c2ccccc2)c2nc(Nc3ccc(N4CCC(N5CC(COC)C5)CC4)cc3)ncc12 [Example 39, 5-Ethynyl-2-[(4-{4-[3-(methoxymethyl)azetidin-1-yl]piperidin-1-yl}phenyl)amino]-8-phenylpyrido[2,3-d]pyrimidin-7-one]
< 20 | C#Cc1cc(=O)n2c3nc(ncc13)Nc1ccc(N3CCN(C)CC3)c(c1)CN(C)C(=O)CC2 [Example 223, 1^5-Ethynyl-5-methyl-3^4-(4-methylpiperazin-1-yl)-1^7,1^8-dihydro-2,5-diaza-1(2,8)-pyrido[2,3-d]pyrimidina-3(1,3)-benzenacyclooctaphane-1^7,6-dione]
< 20 | C#Cc1cc(=O)n2c3nc(ncc13)Nc1ccc(N3CCN(CCOC)CC3)c(c1)OCCCC2 [Example 241, 1^5-Ethynyl-3^4-(4-(2-methoxyethyl)piperazin-1-yl)-1^7,1^8-dihydro-4-oxa-2-aza-1(2,8)-pyrido[2,3-d]pyrimidina-3(1,3)-benzenacyclooctaphan-1^7-one]
< 20 | C#Cc1cc(=O)n([C@H]2CC[C@@H](NC(C)=O)CC2)c2nc(Nc3ccc(N(C)CCN(C)C)cc3)ncc12 [Example 79, N-[(1s,4s)-4-{2-[(4-{[2-(Dimethylamino)ethyl](methyl)amino}phenyl)amino]-5-ethynyl-7-oxopyrido[2,3-d]pyrimidin-8-yl}cyclohexyl]acetamide]

Source: patent US20260137703A1, “2-AMINO-PYRIDO[2,3-D]PYRIMIDIN-7(8H)-ONE AND 7-AMINO-1-PYRIMIDO[4,5-D]PYRIMIDIN-2(1 H)-ONE DERIVATIVES AS EGFR INHIBITORS FOR THE TREATMENT OF CANCER” (Cancer Research Technology Limited, priority 2022, published 2026)
